PubChem BioAssay AID757 (NMMLSC, 2007)
Hit rate of the full screen: of about 190,000 compounds, about 520 (0.27%) were called active. This list was built around the results that the source calls inconclusive (neither active nor inactive); the mix of calls is not that of the screen.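 How the source made its calls: active means GTP binding activity at least 20 points away from the 100% control level, either lower or higher; inconclusive means compound flagged as likely green fluorescent, judged across all proteins; inactive means the rest.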

The compounds below were run against Ras-related C3 botulinum toxin substrate 1 (Homo sapiens) (UniProt P63000) (assay: wildtype Rac1 GTP binding modulators, primary screen, biochemical, GST-Rac1 beads, flow cytometry, multiplex (AID 757)). Conditions: fluorescent GTP binding, at 10 µM, actives lie on both sides, 0 = cold GTP competed, 100 = untreated.
With `O=C(Cn1cc(C(F)(F)F)ccc1=O)N1CCN(S(=O)(=O)c2ccccc2)CC1` the GTP binding activity (% of control) was inconclusive: 102%. In the case of `COc1ccc(OC)c(Nc2nc(N)nc(-c3cc4ccccc4o3)n2)c1`, the GTP binding activity (% of control) is reported as inconclusive: 93%. With `CC(=O)NN1C(=O)/C(=C/c2ccc(C(C)C)cc2)SC1=S` the GTP binding activity (% of control) was inactive: 92%. With `O=C1C2C3C=CC(C3)C2C(=O)N1CCN1CCN(Cc2ccc([N+](=O)[O-])cc2)CC1` (stereo not drawn) the GTP binding activity (% of control) was inactive: 97%. With `COc1ccc(CNc2nc3ccccc3n2Cc2ccccc2)cc1OC` the GTP binding activity (% of control) was inconclusive: 108%. In the case of `O=C1NC2(CCCCC2)N=C1c1ccccc1`, the GTP binding activity (% of control) is reported as inconclusive: 110%. For `Oc1[nH]c2ccccc2c1/C=N/c1nccs1`, the GTP binding activity (% of control) was inconclusive: 93%. With `CCOC(=O)c1c(NC(=O)Cn2nc(C(=O)O)c3ccccc3c2=O)sc(CC)c1C` the GTP binding activity (% of control) was inactive: 95%. `Cc1ccc(NC(=O)/C(=C/c2cccc([N+](=O)[O-])c2)NC(=O)C2CCCCC2)cc1` was tested, and the GTP binding activity (% of control) was inconclusive: 93%. For `Cc1ccc(Sc2c(C)nn(C(=O)C3CC3)c2C)cc1`, the GTP binding activity (% of control) was active: 78%. `O=C(COC(=O)Cc1ccc(S(=O)(=O)N2CCCCC2)s1)Nc1ccc2c(c1)OCO2` was tested, and the GTP binding activity (% of control) was inactive: 102%. `CCCCOC(=O)c1ccc(NC(=S)NC(=O)c2c(Br)c(C)nn2C)cc1` was tested, and the GTP binding activity (% of control) was inconclusive: 93%. For `CC(C)(C)C(=O)/C=c1\s/c(=C\c2ccc(-c3ccc([N+](=O)[O-])cc3)o2)c(=O)n1CC(=O)NC(N)=O`, the GTP binding activity (% of control) was inconclusive: 125%. For `Nc1nc(-c2ccc3c(c2)CCC(=O)N3)cs1`, the GTP binding activity (% of control) was inconclusive: 95%. For `CC(C)(C)C1=Nn2c(nnc2-c2n[nH]c3c2CCC3)SC1`, the GTP binding activity (% of control) was inconclusive: 95%. With `Cc1ccc(NC(=O)Cc2ccc(Cl)c(Cl)c2)cc1S(=O)(=O)N(C)C` the GTP binding activity (% of control) was inconclusive: 103%. With `O=C(CCl)Nc1cccn2ncnc12` the GTP binding activity (% of control) was active: 120% [activator]. With `O=c1[nH]c(Nc2ccc3c(c2)OCCO3)nnc1Cc1ccccc1` the GTP binding activity (% of control) was inactive: 97%. For `Cc1ccnc(NC(=O)COc2ccc3oc4c(c3c2)CCCC4)c1`, the GTP binding activity (% of control) was inactive: 103%. In the case of `Cn1ccnc1Sc1nc(Nc2cccc(Cl)c2)nc(N2CCOCC2)n1`, the GTP binding activity (% of control) is reported as inconclusive: 107%. With `Cc1cc(NC(=O)COc2ccccc2)n(-c2ccccc2)n1` the GTP binding activity (% of control) was inconclusive: 104%. With `CC(C)(C)c1ccc(Oc2ccc(N)cc2)cc1` the GTP binding activity (% of control) was inconclusive: 97%. For `COc1ccc2cc(CN(CCO)C(=O)c3ccccc3F)c(=O)[nH]c2c1`, the GTP binding activity (% of control) was inconclusive: 104%. `CCC(C)c1ccccc1NC(=O)CN1CCN(C/C=C/c2ccccc2)CC1` (stereo not drawn) was tested, and the GTP binding activity (% of control) was inconclusive: 104%. In the case of `CC(=O)[C@@H]1[C@@H]2C(=O)N(c3ccc(F)c(Cl)c3)C(=O)[C@@H]2C2c3ccccc3C=CN21` (stereo partly drawn), the GTP binding activity (% of control) is reported as inconclusive: 106%. `COCCCNCC(=O)Nc1sc(C)c(C)c1C(=O)OC` was tested, and the GTP binding activity (% of control) was inconclusive: 107%. For `Cc1ccc(Nc2nc(N)nc(CSc3nncn3C)n2)cc1`, the GTP binding activity (% of control) was inconclusive: 91%. In the case of `CCOC(=O)C1=C(CC)Nc2ccccc2N=C1N`, the GTP binding activity (% of control) is reported as inconclusive: 89%. In the case of `Cc1ccc(CNc2oc(-c3ccco3)nc2S(=O)(=O)c2ccccc2)cc1`, the GTP binding activity (% of control) is reported as inactive: 99%. With `O=C1CCC(/C=C/c2ccccc2)=NN1Cc1ccc(F)cc1` the GTP binding activity (% of control) was inconclusive: 96%. For `CSc1ccc(/C=C(/NC(=O)c2ccc(C)cc2)C(=O)Nc2cccc(F)c2)cc1`, the GTP binding activity (% of control) was inactive: 106%. For `COC(=O)c1ccc(-c2ccc(/C=N/NC(=O)CC3(C)OCCCO3)o2)cc1`, the GTP binding activity (% of control) was inconclusive: 99%. `Cn1c(Cn2c(=O)sc3ccccc32)nnc1SCC(=O)N1CCCC1` was tested, and the GTP binding activity (% of control) was inactive: 104%. In the case of `COc1cc2c(cc1OC)-c1cc(NC3CCCCCC3)nc(=O)n1CC2`, the GTP binding activity (% of control) is reported as inactive: 80%. For `Cc1cc(NC(=O)CSc2nnc(N)s2)c([N+](=O)[O-])cc1C`, the GTP binding activity (% of control) was inconclusive: 93%. With `COc1ccc(Cn2c(=O)c3c(nc(NCCO)n3C)n(C)c2=O)cc1` the GTP binding activity (% of control) was inconclusive: 84%. For `CCn1cc([N+](=O)[O-])c(C(=O)Nc2ccn(Cc3ccccc3)n2)n1`, the GTP binding activity (% of control) was inconclusive: 105%. With `Cc1ccc(C)c(OCC(=O)N2CCOCC2)c1` the GTP binding activity (% of control) was inactive: 105%. For `COc1cc(OC)nc(Oc2ccccc2C(=O)Oc2ccc(F)cc2Cl)n1`, the GTP binding activity (% of control) was inconclusive: 99%. In the case of `O=C(N/N=C1\CCCc2ccccc21)C(O)c1ccccc1` (stereo not drawn), the GTP binding activity (% of control) is reported as inactive: 105%. With `Nc1nc(N2CCCCC2)nc(N2CCCCC2)n1` the GTP binding activity (% of control) was inconclusive: 108%. `CN1CCN(C(=O)CCc2ncc(C(F)(F)F)cc2Cl)CC1` was tested, and the GTP binding activity (% of control) was inactive: 96%. For `O=C(NC1(C(=O)NC2CCCC2)CCCCC1)c1ccc2c(c1)OCO2`, the GTP binding activity (% of control) was inactive: 104%. In the case of `CCOC(=O)c1cccc(C(=O)Nc2nc3ccc(OC)cc3s2)n1`, the GTP binding activity (% of control) is reported as inactive: 94%. `O=C(O)c1nn(-c2ccccc2)c(-c2ccccc2)c1C(=O)c1ccccc1` was tested, and the GTP binding activity (% of control) was inconclusive: 101%. `C=CCN(CC=C)C(=O)c1ccc(OC2CCN(Cc3ccccn3)CC2)cc1` was tested, and the GTP binding activity (% of control) was inconclusive: 97%. In the case of `O=C(Cc1ccc(Br)cc1)OCC(=O)c1ccc2c(c1)OCCO2`, the GTP binding activity (% of control) is reported as inconclusive: 95%. With `CC(=O)N1CCC2(CC1)C/C(=N\NC(=S)Nc1ccc(C)cc1)c1cc(O)ccc1O2` the GTP binding activity (% of control) was inactive: 94%. In the case of `C#CCOc1ccc(/C=N/NC(=O)c2cccnc2)cc1OCC`, the GTP binding activity (% of control) is reported as inconclusive: 93%. `CC(C)N(C(=O)Cn1cc(SCC(=O)NCc2ccco2)c2ccccc21)C(C)C` was tested, and the GTP binding activity (% of control) was inconclusive: 93%. For `O=NN(CCc1ccncc1)c1ccc(OCc2ccccc2)cc1`, the GTP binding activity (% of control) was inactive: 92%. `O=C(CC1Sc2ccccc2NC1=O)Nc1ccccc1[N+](=O)[O-]` (stereo not drawn) was tested, and the GTP binding activity (% of control) was inconclusive: 106%. With `CC(=O)c1c(C)[nH]c(C(=O)OCc2ccc(F)cc2Cl)c1C` the GTP binding activity (% of control) was inconclusive: 100%. With `Cc1ccc(NC(=O)COC(=O)CSC(=S)N2CCOCC2)cc1` the GTP binding activity (% of control) was inactive: 95%. With `Cc1nc(N2CCN(c3ccccn3)CC2)c2c(C)c(C(=O)Nc3ccc(F)cc3)sc2n1` the GTP binding activity (% of control) was inconclusive: 95%. For `Cn1cccc1/C=C1\SC(=S)N(NC(=O)c2ccccc2Cl)C1=O`, the GTP binding activity (% of control) was active: 78%. With `Cc1oc2cc(OCC(=O)O)ccc2c(=O)c1Oc1ccccc1` the GTP binding activity (% of control) was inconclusive: 104%. With `Oc1ccc2ccccc2c1C=Nc1ccc(Cl)cn1` the GTP binding activity (% of control) was inactive: 97%. For `O=C(Nc1ccccc1)Nc1cccc2nsnc12`, the GTP binding activity (% of control) was inconclusive: 98%. For `O=C1c2[nH]nc(-c3ccccc3O)c2C(c2cccc(Cl)c2)N1CC1CCCO1` (stereo not drawn), the GTP binding activity (% of control) was inconclusive: 93%. In the case of `Cc1ccc(Cl)cc1N1CCN(C(=O)CN(C2CCCCC2)S(C)(=O)=O)CC1`, the GTP binding activity (% of control) is reported as inactive: 104%. In the case of `NC(=O)NC(c1ccccc1)c1ccccc1F` (stereo not drawn), the GTP binding activity (% of control) is reported as inconclusive: 107%. With `O=C(O)C1CCCCC1C(=O)NCc1ccccc1` (stereo not drawn) the GTP binding activity (% of control) was inconclusive: 106%. `O=S(=O)(c1ccccc1)N(CC(O)Cn1c2ccccc2c2ccccc21)c1ccccc1` (stereo not drawn) was tested, and the GTP binding activity (% of control) was inconclusive: 88%. `CCc1ccc(N(CC(=O)NCc2ccc(F)cc2)C(=O)c2csnn2)cc1` was tested, and the GTP binding activity (% of control) was inconclusive: 98%. With `Cc1ccc(NS(=O)(=O)c2cc(NC(=O)c3ccc4c(c3)NC(=O)CS4)ccc2Cl)c(C)c1` the GTP binding activity (% of control) was inactive: 110%. With `Nc1cc(=O)[nH]n1C1CCCC1` the GTP binding activity (% of control) was inconclusive: 97%. `COc1ccc(CC2(CO)CCN(Cc3ccc(NC(C)=O)cc3)CC2)cc1` was tested, and the GTP binding activity (% of control) was inconclusive: 102%. With `O=C(CSc1nnc(-c2cccs2)n1-c1ccccc1)NCc1ccc2c(c1)OCO2` the GTP binding activity (% of control) was inconclusive: 104%. In the case of `COc1ccccc1N1CCN(CC(=O)NC(=O)NCc2ccco2)CC1`, the GTP binding activity (% of control) is reported as inconclusive: 103%. With `CCCOc1ccc(C(=O)NNC(=S)NC(=O)c2cc(-c3ccccc3)nc3ccccc23)cc1` the GTP binding activity (% of control) was inconclusive: 91%. With `O=C(O)c1cccc(OCc2ccccc2Cl)c1` the GTP binding activity (% of control) was inconclusive: 109%. With `O=C(c1cc([N+](=O)[O-])ccc1N1CCOCC1)N1CCCC1` the GTP binding activity (% of control) was inactive: 102%. For `O=c1c2c3c(sc2ncn1Cc1ccc(F)cc1)CCC3`, the GTP binding activity (% of control) was inconclusive: 95%. With `Cn1c(SCC(=O)Nc2cccc(Br)c2)nnc1-c1cc2ccccc2o1` the GTP binding activity (% of control) was inconclusive: 146%. In the case of `COc1ccc(OC)c(C2C3=C(COC3=O)Nc3cc4c(cc32)OCO4)c1` (stereo not drawn), the GTP binding activity (% of control) is reported as inconclusive: 87%. In the case of `COc1cccc(NC(=O)COC(=O)/C=C/c2ccc(Cl)cc2Cl)c1`, the GTP binding activity (% of control) is reported as active: 77%. With `O=C(Cn1c(=O)n(CC(=O)NCc2ccccc2)c2ccccc21)NCc1ccccc1` the GTP binding activity (% of control) was inconclusive: 109%. In the case of `Cc1cccc(NS(=O)(=O)c2cnc(Cl)c(Br)c2)n1`, the GTP binding activity (% of control) is reported as inactive: 101%. With `C/C=C/C=N/Nc1nc(C)cc(=O)[nH]1` the GTP binding activity (% of control) was inconclusive: 94%. For `c1coc(-c2nnc3sc(Cc4cccs4)nn23)c1`, the GTP binding activity (% of control) was inconclusive: 93%. With `NS(=O)(=O)c1ccc(CCN2C(=O)/C(=C\c3ccc(Cl)cc3)SC2=S)cc1` the GTP binding activity (% of control) was active: 77%. `O=C(c1ccccc1)c1ccc(OCCCN2CCCC2)cc1` was tested, and the GTP binding activity (% of control) was inconclusive: 103%. With `O=C(Nc1ccc(Cl)cc1Cl)N1CCN(c2ncccn2)CC1` the GTP binding activity (% of control) was inactive: 97%. With `COC(=O)c1sc2ncccc2c1OCc1ccc(Cl)cc1Cl` the GTP binding activity (% of control) was inconclusive: 93%. `CCOC(=O)Cn1nnnc1C(C(C)C)N(Cc1cccs1)Cc1cc2cc(C)ccc2[nH]c1=O` (stereo not drawn) was tested, and the GTP binding activity (% of control) was inactive: 97%. For `O=C(Cn1cnc2ccccc2c1=O)c1c[nH]c2ccccc12`, the GTP binding activity (% of control) was inconclusive: 103%. In the case of `Cc1ccc(C(=O)Nn2c(O)c(C=C3N=c4ccccc4=N3)sc2=S)cc1`, the GTP binding activity (% of control) is reported as active: 72%. With `COc1ccc(Br)cc1/C=N/NC(=O)c1ccc(OC)c(OC)c1` the GTP binding activity (% of control) was inconclusive: 95%. With `CCN(CC)c1ccc(-c2nn3c(-c4cccnc4)nnc3s2)cc1` the GTP binding activity (% of control) was inactive: 83%. For `CCOc1ccc(Br)cc1-c1noc(-c2cccs2)n1`, the GTP binding activity (% of control) was inactive: 101%. For `CSc1nc(C)c2cc(C)oc2n1`, the GTP binding activity (% of control) was inconclusive: 105%. For `Cc1ccc2c(c1)c1nnc(SCC(=O)N3CCCc4ccccc43)nc1n2CC(=O)O`, the GTP binding activity (% of control) was active: 66%.
